These results are taken from ChEMBL document CHEMBL4888484, “Replenishing the malaria drug discovery pipeline: Screening and hit evaluation of the MMV Hit Generation Library 1 (HGL1) against asexual blood stage Plasmodium falciparum ,using a nano luciferase reporter read-out” (2022).

The whole screen tested about 150,000 compounds, of which about 540 (0.36%) showed an effect of 50% or more. The list shows a part of the results.

The test system of this assay is Plasmodium falciparum. Nature of the assay: Primary screen in NF54 nanoGlo assay, in single point, at 2uM, 72h; a lower Z score goes with more inhibition. Conditions: timepoint 72 hour. The format is functional, Erythrocyte.
What is called % Inhibition is the change of the read-out against control, counted positive when it falls. Regarding `O=C(NC[C@@H]1CCCO1)c1cc(COc2cncc(Cl)c2)on1`, the “% Inhibition” value is listed as -16% and the Z score is on record as 1.65.
In the same order, the values of `NCCCn1cc(-c2ccc(OCC(F)(F)F)cc2F)cn1` are 7% and -1.34.
As for `COc1ccc(C)cc1NC(=O)[C@H]1CCCN(c2cn[nH]c(=O)c2)C1`, the “% Inhibition” value was found to be 36% and the Z score is recorded as -4.08.
For the compound `COc1ncc(Br)c2ncccc12`, the “% Inhibition” value is recorded as -11% and the Z score amounted to 2.1.
In the same order, the values of `CCOc1ccc(NC(=O)Cc2nc(-c3cccnc3)n[nH]2)cc1` are -18% and 2.9.
Regarding `CC1CCN(C(=O)c2nc[nH]c2C(=O)NC2CCCCC2)CC1`, the “% Inhibition” value amounted to 15% and the Z score is reported as -1.7.
On to `CC(C)n1cnnc1Cn1ncc(N(C)C)cc1=O`, for which the “% Inhibition” value is 0% and the Z score turned out to be 0.01.
Regarding `c1ccc(-c2noc(-c3nnc(NCCN4CCOCC4)c4ccccc34)n2)cc1`, the “% Inhibition” value was found to be 7% and the Z score was -0.83.
In the same order, the values of `CC(NC(=O)NCc1ccccc1)C1CCCO1` (stereo unspecified) are 11% and -1.43.
The like results for `CC(N)CC(=O)N1CCCC2(CCCc3ccccc32)C1` (stereo unspecified) were, in that order, 2% and -0.33.
The like results for `CCn1cc(-n2cnc(CCNC(C)=O)c2)c(C)n1` were, in that order, -3% and 0.52.
As to `O=C(NCC1(c2ccncc2)CC1)c1ccc(CO)cc1`, the “% Inhibition” value is 0% and the Z score stood at 0.07.
Turning to `Cc1nc(N2CCOCC2)sc1-c1nnc2n1CC(C)(C)CC2`, the “% Inhibition” value is reported as -6% and the Z score was 1.12.
The like results for `CCOC(=O)C1CCN(c2nc(-c3ccccc3F)c3c(N)n(C)nc3n2)CC1` were, in that order, -6% and 1.
In the same order, the values of `Cc1nccc(N2CCN(c3nccn(C)c3=O)CC2)n1` are -3% and 0.53.
In the case of `CCc1cc(C(=O)N2CCC3(CCC(=O)N(Cc4cccnc4)C3)CC2)ccn1`, the “% Inhibition” value is -6% and the Z score was determined as 0.96.
For `CO[C@H]1CN(c2ccc(C)cc2)C12CCN(C(=O)c1ccnn1C)CC2`, the “% Inhibition” value was -15% and the Z score was determined as 1.92.
On to `Cc1[nH]nc2c1[C@H](c1cnn(C)c1)c1c(ncn3nc(-c4c(Cl)c(C(F)(F)F)nn4C)nc13)O2`, for which the “% Inhibition” value was determined as 4% and the Z score was -0.51.
As to `O=S1(=O)CC[C@H](N2CCCCCC2)C1`, the “% Inhibition” value is recorded as -14% and the Z score was determined as 1.68.
The like results for `CN[C@@H](C(=O)OC)c1cc(F)c(F)c(F)c1` were, in that order, 4% and -0.54.
In the same order, the values of `CC(C)C[C@H]1NC(=O)c2cc(F)ccc2OCCn2cc(nn2)CCN(Cc2cscn2)CCNC1=O` are -11% and 2.09.
In the same order, the values of `Cn1nccc1C(=O)N1CC[C@H](Cc2noc(C3CC3)n2)C1` are -6% and 0.8.
For the compound `COc1ccc(Cc2nc3c4cnn(-c5cccc(F)c5)c4ncn3n2)cc1`, the “% Inhibition” value was found to be 13% and the Z score was -1.47.
Take `COc1ccc(CN(C)[C@H]2CCc3nn(C)c(=O)n3CC2)cc1Cn1cccn1`: the “% Inhibition” value is -6% and the Z score came to 0.99.
The like results for `Cc1nc2c(s1)CCC[C@@H]2NC(=O)c1ccc2c(c1)OCO2` were, in that order, -6% and 1.18.
In the same order, the values of `C[C@@H](c1cc2ccccc2[nH]1)N(C)C(=O)c1ccc(CCC(C)(C)O)cc1` are -12% and 2.34.
In the same order, the values of `Clc1cnc(N2CCCC3(C2)OCCO3)c(Cl)c1` are 2% and -0.37.
Take `O=S(=O)(Cc1cccc(C(F)(F)F)c1)Nc1ccon1`: the “% Inhibition” value is -9% and the Z score is reported as 1.18.
The like results for `O=C(CCn1ccc2ccccc21)N1CCCC1` were, in that order, -10% and 1.31.
Regarding `O=c1cccc2n1CC1CC2CN(c2nc(NC3CCCCC3)nc(N3CCOCC3)n2)C1` (stereo unspecified), the “% Inhibition” value came to 2% and the Z score is on record as -0.32.
In the same order, the values of `CC(C)c1scnc1C(=O)N[C@@H](C)c1ccccn1` are 6% and -0.69.
The like results for `COc1cccc(C(=O)N2[C@H](C(=O)NCc3ccccn3)COC23CCN(C(=O)c2ccc(Cl)c(Cl)c2)CC3)c1` were, in that order, -9% and 1.29.
As for `Cc1cccc(N2CCN(C(=O)Nc3nc(C)c(C)o3)CC2)c1C`, the “% Inhibition” value is -14% and the Z score turned out to be 2.79.
The like results for `COc1ccc(-c2ncnc(N3CCN(C)CC3)c2N)cc1` were, in that order, 5% and -0.68.
Consider `Cc1csc([C@H](C)NC(=O)c2coc(COc3cccc4cccnc34)n2)n1`, for which the “% Inhibition” value came to 2% and the Z score is given as -0.22.
Take `CCS(=O)(=O)N1CCC[C@H]1c1cccs1`: the “% Inhibition” value is reported as -4% and the Z score is reported as 0.74.
The like results for `O=C(N[C@@H]1COCC[C@@H]1OCc1ccccc1)c1ccon1` were, in that order, -5% and 1.06.
For `Cc1ccccc1-c1nc(N)n(C(=O)C2CCCCC2)n1`, the “% Inhibition” value is reported as -4% and the Z score turned out to be 0.67.
Take `O=C(c1cc(C2CC2)[nH]n1)N1CCCCC1`: the “% Inhibition” value was -13% and the Z score is on record as 1.13.
The like results for `CCC[C@H]1CN(Cc2ccc3cn[nH]c3c2)CCO1` were, in that order, -22% and 3.16.
In the same order, the values of `CCOCCCNC(=O)[C@@H](c1ccc(OC)cc1)N(Cc1ccc2c(c1)OCO2)C(=O)c1ccccc1O` are -4% and 0.62.
In the same order, the values of `Cc1ccc(NS(=O)(=O)c2cc(-c3ccno3)oc2C)c(C)c1` are -10% and 1.18.
For the compound `O=C(O)c1nc2ccccc2cc1C1CC1`, the “% Inhibition” value was -2% and the Z score was 0.38.
